Laboratory results as given in PubChem BioAssay AID662 (National Center for Advancing Translational Sciences (NCATS), 2007).
In all, about 71,000 compounds went through this assay and about 1,800 (2.5%) were called active. Inconclusive means that the source gave no clear call. Such entries were picked first, then a sample of the others. The call rests on the fitted dose curve; in most records, active means well fitted activation curve with a large enough effect in the signal ratio, with a control signal flat (not every such curve was filed as active); inconclusive means small, poorly fitted or top-dose-only effect, or effect the other way, or a change in a side signal; inactive means flat fitted curve, though single readings scatter; the % refers to the signal ratio. Potencies of inconclusive entries are doubtful fits and often do not repeat.

Experiment: Cell signaling CRE-BLA (Fsk stim); on activity change, negative = inhibition: % of control where 0% means no effect
Conditions: CHO CRE-bla reporter (cAMP response element driving beta-lactamase), forskolin EC10, beta-lactamase ratio; activity change, negative = inhibition: at 38.2 µM (top of the series) unless noted
Method in brief: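 Titrated compounds plus EC10 NKH 477 on CHO CRE-bla cells, 3 h, 37 °C. CCF4, 2 h RT. Ratio 460/530 nm → AC50.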
Potency means the concentration at half of the fitted maximal effect; tags describe the fitted curve by direction and shape.

Compound	activity change, negative = inhibition	Potency
COc1ccc(C2=NO[C@@H]3C(=O)N(c4cccc(C)c4C)C(=O)[C@H]23)cc1OC	inconclusive: -15.1%	
CSc1nc2c(c(=O)[nH]c(=O)n2C)n1C/C=C(\C)Cl		active: 12.6 µM
CS(=O)(=O)c1ccc(CNC(=O)[C@H]2C[C@@H]2[C@H](NP(=O)(c2ccccc2)c2ccccc2)c2ccccc2)cc1	inactive: -8.88%	
COc1cc(C(=O)NCCC(=O)NCCN2CCOCC2)cc(OC)c1OC	inactive: -3.67%	
c1cncc(CNCc2cccnc2)c1	inactive: 5.17% [at 7.6 µM]	
CC1(C)Cc2c(sc3nc(NCCN4CCOCC4)n4ncnc4c23)CO1		active: 3.98 µM
COc1ccc(N2CCN(C(=O)CCCOc3cc(=O)n(C)c4ccccc34)CC2)cc1		inconclusive: 10 µM [rising, partial curve]
C=CCc1c(C)[nH]c(=S)c(C#N)c1C	inconclusive: 18.2%	
NC(=O)C/C=C\CC(N)=O	inactive: -10.9% [at 7.6 µM]	
O=c1cc(CSc2nnc(-c3cccs3)n2Cc2ccccc2)nc2sc3ccccc3n12		inconclusive: 15.8 µM [rising, partial curve]
CCOc1cc(OCC)c(C(C)=O)cc1OCC		inconclusive: 15.8 µM [rising, partial curve]
COc1ccc(-n2c(SCC(=O)Nc3nccs3)nc3c(c2=O)SCC3)cc1		inconclusive: 12.6 µM [rising, single point]
Cc1cc(N2CCN(C(=O)c3ccco3)CC2)n2ncnc2n1	inconclusive: -3.48%	
Cc1ccc(-c2nnc(N3CCOCC3)c3ccccc23)cc1S(=O)(=O)NCC1CCCO1 (stereo unspecified)		active: 3.16 µM
O=C(O)[C@H](CCc1ccccc1)N1C(=O)c2ccccc2C1=O	inactive: 9.8% [at 7.6 µM]	
Cc1cc(C)nc(NC(=O)Nc2ccccc2C(F)(F)F)n1		inconclusive: 10 µM [rising, single point]
CN(C)c1ccc(-c2nnn(CC(=O)Nc3ccccc3N3CCOCC3)n2)cc1		inconclusive: 3.98 µM [rising, partial curve]
O=C(Cn1c(=O)oc2ccccc21)N1CCCCC1	inactive: -1.53%	
CN(C)c1nc(N)nc(-c2ccco2)n1		inconclusive: 12.6 µM [rising, single point]
Cc1cnc(C(=O)Nc2cccc(-c3nnc4n3CCCCC4)c2)cn1	inconclusive: -13.5%	
CCOC(=O)C1=C(C)NC(=O)NC1c1ccccc1Cl (stereo unspecified)	inconclusive: 4.31%	
CCN(CC)CCN1C(=O)C(O)=C(C(C)=O)C1c1ccccc1 (stereo unspecified)	inconclusive: 35.6%	

Compound	activity change, negative = inhibition	Potency
N#CC1=C2SCN(Cc3ccccc3)CN2C(=O)CC1c1ccc2c(c1)OCO2 (stereo unspecified)	inconclusive: 18.1%	
CCC(=O)N1Cc2ccccc2-c2ccccc2C1=O	inactive: -6%	
CC1(C)NC(=O)NC2(C)NC(=O)NC(C)(C)C12 (stereo unspecified)	inconclusive: 7.7%	
O=c1c2[nH]c3ccccc3c2ncn1C1CCCCC1	inconclusive: 19.2%	
Cc1cccn2c(=O)c3cc(C(=O)NCCN4CCOCC4)c(=N)n(CCc4ccccc4)c3nc12		active: 12.6 µM
Cc1c(C(=O)N2CCN(S(C)(=O)=O)CC2)oc2ccccc12	inconclusive: -13.5%	
O=C(Nc1ccc2c(c1)oc1ccccc12)c1ccc2c(c1)OCO2	inactive: 1.99%	
CCCCn1c(NC(=O)c2ccccc2)nc2ccccc21	inconclusive: -13%	
Clc1ccccc1N1CCN(c2ncnc3nc[nH]c23)CC1	inconclusive: -2.6%	
COC(=O)c1ccc(C2C(C#N)=C(C)NC3=C2C(=O)CC(C)(C)C3)cc1 (stereo unspecified)		inconclusive: 12.6 µM [rising, partial curve]
Cc1cccc(C)c1NC(=O)C(c1cccs1)N(Cc1ccco1)C(=O)Cn1nnc2ccccc21 (stereo unspecified)	inactive: -1.63%	
CCOC(=O)c1cnc2ccc(C(=O)OC)cc2c1NCCN1CCOCC1		inconclusive: 12.6 µM [rising, partial curve]
Cc1cc(=O)oc(C)c1C(=O)OCC(=O)c1ccccc1	inconclusive: -15% [at 7.6 µM]	
CCCCN(CC)C(=O)c1cccc(Cl)c1		inconclusive: 3.98 µM [falling, single point]
Cc1nc2c3ccccc3[nH]c(=O)n2n1	inconclusive: 17.9%	
O=c1c2ccccc2c(C=NCCO)c(O)n1-c1ccccc1	inconclusive: 15.4%	
c1ccc2nc(C3=NCCN3)cnc2c1	inconclusive: -8.01%	
COCCOc1nc2ccccc2nc1C		inconclusive: 15.8 µM [rising, partial curve, poor fit]
O=C(COc1ccc(S(=O)(=O)N2CCCC2)cc1Cl)NCc1ccc2c(c1)OCO2	inactive: -2.49%	
O=C(CSc1ccccc1C(=O)NCCCN1CCCC1=O)NCc1ccco1	inactive: -7.99%	
O=C(Nc1cccc(F)c1)N1CCCC2(CCNCC2)C1	inactive: -5.85%	
CC(C)CN1CCC2(CC1)CCN(C(=O)c1cccn1C)CC2	inactive: 0.273%	

Compound	activity change, negative = inhibition	Potency
O=C(NCc1ccccc1F)C1CCN(C(=O)NCc2ccccc2)CC1	inactive: -2.41%	
CCC(Sc1nc(C)cc(=O)[nH]1)C(=O)Nc1nc2c(s1)CCCC2 (stereo unspecified)	inconclusive: 1.32%	
O=C(COc1ccc(S(=O)(=O)N2CCc3ccccc32)cc1Cl)NCc1ccccn1	inconclusive: -0.833%	
Cn1cc(S(=O)(=O)N2CCN(Cc3ccccc3)CC2)c(=O)n(C)c1=O		inconclusive: 15.8 µM [rising, partial curve]
COc1ccc(-n2c(=O)c(C)nc3cncnc32)cc1	inconclusive: 16.2%	
COc1ccc(N2CCN(C(=O)CN(c3ccc(Br)cc3)S(C)(=O)=O)CC2)cc1	inconclusive: 1.74% [at 7.6 µM]	
O=C(CN1CCCCCC1)NCCc1ccc(F)cc1	inactive: -3.38%	
COc1ccc(F)cc1CN1CCN(c2cc(C)nc3c4c(C)cc(C)nc4nn23)CC1		inconclusive: 12.6 µM [rising, partial curve]
O=C(Nc1ccccc1)c1cccc(N2CCCC2=O)c1	inactive: -9.63%	
COc1ccc2nc(C)cc(C(=O)O)c2c1	inactive: 8.58%	
CCOC(=O)N1CCC(N2Cc3cccc(C(=O)Nc4ccc(OC)c(OC)c4)c3C2=O)CC1		inconclusive: 3.16 µM [rising, full curve, poor fit]
CC(=O)Oc1ccc(N(C(C)=O)S(=O)(=O)c2cccs2)cc1	inactive: -0.782%	
CCOc1nc(Nc2ccc(-c3nc4ccccc4o3)cc2)nc(N2CCOCC2)n1		inconclusive: 3.98 µM [rising, single point]
COc1ccccc1-c1nnc2sc(COc3ccc(Cl)cc3)nn12	inactive: 7.2%	
Cn1c2ccc(F)cc2c2ncn(CCN3CCOCC3)c(=O)c21		active: 10 µM
CC1(C)Oc2ccc3ccc(=O)oc3c2-c2cn[nH]c21		inconclusive: 7.94 µM [rising, partial curve]
Cc1nn(-c2ccc(F)cc2)c2nc(N)c(C#N)c(-c3cccs3)c12		active: 7.94 µM
C=CCN(C(=O)CSc1nc2[nH]ncc2c(=O)n1-c1ccccc1OC)c1ccccc1		inconclusive: 12.6 µM [rising, single point]
COc1ccc2ccccc2c1C1CC(=O)N2CN(Cc3ccco3)CSC2=C1C#N (stereo unspecified)	inconclusive: -5.69%	
O=C(O)c1cc(=O)c2ccc(Cl)cc2[nH]1	inconclusive: -11.5%	
CCOC(=O)c1cnc(SCc2nc(N)nc(Nc3ccccc3)n2)nc1N		inconclusive: 10 µM [rising, partial curve]
Cn1cccc1C(=O)N1CCC2(CCCN(c3ccc(-c4ccccc4)cc3)C2)CC1	inactive: -6.69%	

Compound	activity change, negative = inhibition	Potency
CCS(=O)(=O)N1CCN(C(=O)CC(C)C)CC1	inconclusive: -15%	
Fc1cc(Br)ccc1Nc1nc2ccccc2n2nnnc12	inactive: 11.2%	
COc1ccc(C(=O)n2nc(-c3ccc(C)cc3)nc2N)cc1OC	inactive: 15.7%	
COC(=O)N1CCC2(CC1)CN(C(=O)Nc1cccc(C#N)c1)C2	inconclusive: -9.2%	
Cc1ccc(NC2=NC(c3ccc(C)cc3)n3c(nc(C)cc3=O)N2)cc1 (stereo unspecified)		inconclusive: 12.6 µM [falling, single point]
Nc1nc2c3ccccc3nc(Cc3ccccc3)n2n1		inconclusive: 3.98 µM [rising, partial curve]
COC(=O)c1c(NC(=O)c2ccco2)sc(C(=O)N2CCCC2)c1C	inconclusive: 28.2%	
COc1ccc(C(C)=O)cc1COC(=O)c1ccc2c(c1)OCO2		inconclusive: 6.31 µM [rising, partial curve]
O=C1CN(C(=O)COC(=O)Cc2ccsc2)c2ccccc2N1	inconclusive: 8.61%	
CC(C)(C)Sc1ccc(N)nc1	inactive: -0.587%	
NC(=O)C1CCN(CCC(=O)Nc2cccc(Cl)c2)CC1	inconclusive: 7.42%	
CCOc1ccccc1OCc1nn2c(-c3ccc(C)cc3)nnc2s1		inconclusive: 15.8 µM [rising, single point]
CC(=O)c1cc2c(cc1NC(=O)c1cc3nc(C(C)C)cc(C(F)(F)F)n3n1)OCO2	inconclusive: 16.7%	
Cc1ccc(S(=O)(=O)O)cc1C	inactive: -4.13%	
Cc1ccc(-c2nnc3c4ccccc4c(C)nn23)cc1S(=O)(=O)N1CCN(CCO)CC1		active: 3.16 µM
C[C@]12CCC3c4ccc(OCC(=O)O)cc4CCC3C1CCC2=O (stereo partly specified)	inactive: 5.08% [at 7.6 µM]	
CC(C)(CC(=O)Nc1ccccc1)C(=O)O	inactive: -3.46% [at 7.6 µM]	
CCOC(=O)SC1=N/C(=C\c2ccc(N(C)C)cc2)C(=O)S1	inactive: 2.14%	
CC1CCCc2sc3nc(N4CCN(CCO)CC4)n4ncnc4c3c21 (stereo unspecified)		inconclusive: 5.01 µM [rising, partial curve]
O=C1c2ccccc2S(=O)(=O)N1CCCCN1CCN(c2ncccn2)CC1	inconclusive: -2.24%	
